Data published in patent US20250325717A1, “ANTI-NUCLEOPHOSMIN 1 ANTIBODY AND ANTIBODY CONJUGATE COMBINATION THERAPIES” (The Children's Medical Center Corporation, priority 2022, published 2025).

Key:
NPM1c/Flt3-ITD AML = assay: Efficacy model 1: syngeneic NPM1c/Flt3-ITD AML transplantation; type: in vivo, mice; details: 5 mg/kg IP
Method: Efficacy of treatment with Ab2.2 was assessed using different models. In efficacy model 1, mice were subjected sub-lethal irradiation, followed by transplantation of primary murine AML cells. The mice receiving the primary murine AML were administered weekly antibody treatments of Ab2.2 at a dose of 5 mg/kg. Administration occurred by IP injection. Weekly bleeds were performed and the overall survival of mice, analysis of bone marrow (BM) and spleen and molecular phenotyping were performed (FIG. 21A). The primary murine cells used were NPM1c/Flt3-ITD AML and a Syngeneic AML mouse model was used. The control group received 5 mg/kg dose (IgG) and the target group received 5 mg/kg dose (Ab2.2). Three doses (1 per week) were administered. […] The survival study ended at day 100 due to protocol, not toxicity or AML recurrence.

NPM1 = biological target: T1, NPM1 (Homo sapiens, UniProt P06748); assay: Western blot validation on WCE and crude membrane lysate; type: binding; details: WCE and crude membrane (Mem) lysate
T1 construct: endogenous in cells
T1 sequence (P06748 whole entry, species assumed): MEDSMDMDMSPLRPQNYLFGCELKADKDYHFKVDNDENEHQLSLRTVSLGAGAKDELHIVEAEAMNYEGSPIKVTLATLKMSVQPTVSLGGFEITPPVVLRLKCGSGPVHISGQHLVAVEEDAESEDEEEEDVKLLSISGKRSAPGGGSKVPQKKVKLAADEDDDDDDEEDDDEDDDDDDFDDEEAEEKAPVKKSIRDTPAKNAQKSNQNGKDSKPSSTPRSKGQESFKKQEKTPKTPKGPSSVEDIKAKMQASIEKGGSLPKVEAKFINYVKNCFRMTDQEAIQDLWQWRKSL
Method: The Ab2.2 antibody was further validated using western blot and compared to commercially available antibodies. The commercially available antibody was supplied from Santa Cruz (SC FC8791). Two sources of lysate were evaluated, WCE and crude membrane (Mem). […] Therefore, commercially available and Ab2.2 show near-identical banding pattern to NPM1 (FIG. 15B).

[1] = Ab2.2 effects in sub-lethally irradiated wild type mice; type: in vivo, C57BL/6J mice; details: sub-lethal irradiation; 10 mg/kg IP weekly, four treatments; D1 to D27; vs IgG
Method: Wild type mice receiving sub-lethal irradiation were tested for effects of Ab2.2 treatment. WT C57BL/6J mice were subjected to sub-lethal irradiation and four treatments of Ab2.2. Ab2.2 treatments occurred weekly via IP injection and weekly bleeds were performed. Control group received 5 mg/kg of IgG and Ab2.2 treated groups received 10 mg/kg of Ab2.2. Regular blood counts, animal phenotyping and measurement of adverse/toxic effects were performed (FIG. 26A).

[2] = test system: OCI-AML3 cells (human AML); assay: Survival of SCID CB17 mice engrafted with OCI-AML3 cells; type: in vivo; details: 10 mg/kg weekly, 4 doses
Method: (§1) The ability of Ab2.2 to extend lifespan in mouse models xenografted with human AML cell line was assessed. SCID CB17 mice received transplantation of OCI-AML3 cells (human AML). Next, engrafted mice received weekly treatment of Ab2.2 (target group) or IgG (control group). The target group received 10 mg/kg dose of Ab2.2. Mice received a total of 4 doses. Mice were assessed for overall survival, and molecular phenotyping (FIG. 30A).
Antibody binding was assessed using flow cytometry (FIG. 30B). […] (FIG. 30C). Therefore, lifespan extension is observed in mice engrafted with human AML cell line and with natural killer (NK) cells and complement that are treated with Ab2.2.

[3] = test system: PDX (MLL-R) cells (human AML-PDX); assay: Survival of SCID CB17 mice engrafted with human AML-PDX; type: in vivo; details: 10 mg/kg weekly, 4 doses
Method: as §1, with “AML-PDX” for “AML cell line”, “PDX (MLL-R)” for “OCI-AML3”, “AML-PDX).” for “AML).”, “31A).” for “30A).”
Antibody binding was assessed using flow cytometry (FIG. 31B). […] (FIG. 31C). Therefore, lifespan extension is observed in mice engrafted with human AML-PDX cell line and with natural killer (NK) cells and complement that are treated with Ab2.2.

human tumor models = assay: Flow cytometry binding to in vitro tumor models; type: cell-based; details: various tumor types
Description: To assess the ability of Ab2.2 to bind to human tumors, in vitro models of various types were investigated using flow cytometry. The tumor models assessed for Ab2.2 binding were murine melanoma, lung carcinoma (human), Laryngeal carcinoma, colorectal (human and murine), Ewing sarcoma (Human), Pharyngeal carcinoma (Human), Pancreatic carcinoma (Human), Oesophageal cancer (Human), Osteosarcoma (Human), Neuroblastomas (Human), Brain tumors (Human), Hematological malignancies, Fibrosarcoma, Prostate cancers, and Pancreatic adenocarcinoma (Murine) (FIGS. 27A-27O).

MLL-AF9/Flt3-ITD AML = assay: Efficacy model 2: syngeneic MLL-AF9/Flt3-ITD AML transplantation; type: in vivo, mice
Method: In efficacy model 2, mice were subjected sub-lethal irradiation, followed by transplantation of primary murine AML cells. The mice receiving the primary murine AML was administered weekly antibody treatments of Ab2.2 at a dose of 5 mg/kg. Administration occurred by IP injection. Weekly bleeds were performed and the overall survival of mice, and molecular phenotyping were performed (FIG. 22A). The primary murine cells used for transplantation were MLL-AF9/Flt3-ITD AML. A syngeneic AML mouse model was used. The control group received 5 mg/kg dose (IgG) and the target group received 5 mg/kg dose (Ab2.2). A total of 4 doses of Ab2.2 were administered. Antibody binding was observed using flow cytometry (FIG. 22B). […] Survival was about 20 days in the IgG treated mice, compared to about 55 days in the Ab2.2 treated mice (FIG. 22C). Therefore, Ab2.2 improves overall survival in AML model with lower surface levels of NPM1.
Spleen, lung and liver samples collected three days after the first dose of Ab2.2 treatment were compared between control (IgG) and Ab2.2 treated group. The spleens, lungs and livers of Ab2.2 treated mice all weighed less than the IgG treated mice (FIG. 23B).

[4] = three days after the first dose, vs IgG treated mice

B1: Ab2.2 (antibody)
heavy: [sequence of about 100 residues not given]WRNNAFDYWGQGTLVTVSS[sequence of human IgG1 constant region not given]
light: SSELTQDPAVSVALGQTVRITCQGDSLRSYYASWYQQKPGQAPVLVIYGKNNRPSGIPDRFSGSSSGNTASLTITGAQAEDEADYYCNSSPRLKHRVVFGGGTKLTVLGQPKAAPSVTLFPPSSEELQANKATLVCLISDFYPGAVTVAWKADSSPVKAGVETTTPSKQSNNKYAASSYLSLTPEQWKSHRSYSCQVTHEGSTVEKTVAPTECS
With B1 the “hematopoiesis (spleen weight, HGB and HCT levels)” value (NPM1c/Flt3-ITD AML; three doses (1 per week)) was “resolves defects in hematopoiesis”, the “tumor burden (total WBC count and qPCR)” value (NPM1c/Flt3-ITD AML; three doses (1 per week)) was “reduced tumor burden” and the overall survival (NPM1c/Flt3-ITD AML; three doses, study ended at day 100) was “improved the overall survival”. For the same molecule, the western blot band (NPM1) was “around 38 kB”, the HGB levels [1] was “no significant difference” and the PLT levels [1] was “no significant difference”. The WBC count [1] was “no significant difference”, the weight [1] was “no significant difference” and the survival after transplantation [2] was “over 40 days”. The “survival compared with IgG treated mice” value ([2]; p=0.0015) was “significantly longer”, the survival after transplantation [3] was “over 60 days” and the “survival compared with IgG treated mice” value ([3]; p=0.0023) was “significantly longer”. For the same molecule, the “binding to tumor models in vitro” value (human tumor models) was “binds to a diverse set of human tumor models”, the Survival (MLL-AF9/Flt3-ITD AML; 5 mg/kg IP weekly, 4 doses) was “about 55 days” and the “mean survival compared with IgG treated animals” value (MLL-AF9/Flt3-ITD AML; 5 mg/kg IP weekly, 4 doses, p=0.0027) was “significantly higher”. For the same molecule, the liver weight (MLL-AF9/Flt3-ITD AML; [4]) was “weighed less”, the lung weight (MLL-AF9/Flt3-ITD AML; [4]) was “weighed less” and the spleen weight (MLL-AF9/Flt3-ITD AML; [4]) was “weighed less”.
